Laboratory results published in patent US20100047253A1 (Amgen, published 2010).

Biological target: T1, IL-13 receptor alpha 2 on HDFa cells (human, UniProt Q14627 27-380)
T1 construct: whole, on cells; also called IL-13Rα2; IL-13Ra2
T1 sequence (looked up): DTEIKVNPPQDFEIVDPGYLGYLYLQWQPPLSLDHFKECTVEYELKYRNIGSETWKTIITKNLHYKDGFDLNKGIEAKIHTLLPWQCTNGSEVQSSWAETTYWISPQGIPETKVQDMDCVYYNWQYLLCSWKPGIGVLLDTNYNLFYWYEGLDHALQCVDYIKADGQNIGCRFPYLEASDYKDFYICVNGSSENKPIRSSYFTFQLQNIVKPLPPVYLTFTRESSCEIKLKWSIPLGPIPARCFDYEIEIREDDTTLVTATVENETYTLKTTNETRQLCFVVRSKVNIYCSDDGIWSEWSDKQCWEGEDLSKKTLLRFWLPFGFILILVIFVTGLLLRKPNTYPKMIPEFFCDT
Assay: Flow cytometry on HDFa cells: IL-13 pre-incubated with 731 and added to cells with or without anti IL-13Ra1, anti IL-13Ra2 or anti IL-4R, detection of 731 with goat anti Hu IgG-Fc-Cy5

B1: Recombinant Human IL-13 (R & D 213-IL-005) (ligand)
chain: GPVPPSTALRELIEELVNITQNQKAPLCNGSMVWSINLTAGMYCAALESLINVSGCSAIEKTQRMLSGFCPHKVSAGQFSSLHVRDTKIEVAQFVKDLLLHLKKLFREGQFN
notes: also called IL-13 antigen (R&D Systems)
B1: binds.
